In patent US20070128193A1, “GLP-1 agonists, compositions, methods and uses” (priority 2004, published 2007):

Key:
RIN-m cells = test: Cytokine-induced apoptosis in RIN-m cells (Cell Death ELISA); assay type: cell-based; details: serially diluted from 100 nM; TNFα 10 ng/mL or IL-1β 4 ng/mL, 16 hours
Method: RIN-m cells were seeded at 50,000 cells/well in 96 well plates and incubated at 37° C. overnight. The following day, cells were treated with a dose range of GLP-1 MMB (serially diluted from 100 nM) for 30 minutes before the addition of the cytokines TNFα (10 ng/mL) or IL-1β (4 ng/mL). The plates were incubated at 37° C. for 16 hours. To assay apoptosis the Cell Death ELISA-Plus assay kit (Roche Applied Science, Cat. No. 11920685001) was used. Media was aspirated from the wells, 200 μL of lysis buffer was added to each well, and the plate was incubated for 30 minutes at room temperature. After incubation, 20 μL of lysate was transferred to a streptavidin coated 96 well microtiter plate. 80 μL of immunoreagent (1:20 dilutions of the anti-histone-biotin and anti-DNA-peroxidase in the incubation buffer provided) was also added to each well. The 100 μL suspension was then incubated at room temperature for 2 hours, shaking gently. After 2 hours, the plates were washed three times with incubation buffer and development solution was added to the plates. Absorbance was read at 405 nm after approximately five minutes.

[1] = system: diabetic nude mice transplanted with human islets; test: Marginal mass transplant of human islets in STZ diabetic nude mice; assay type: in vivo; details: 0.5 mg/kg daily IP
Method: The effects of GLP-1 MMB on the efficacy of a marginal mass transplant of human islets in diabetic immunocompromised mice. Athymic nu/nu (nude) mice were purchased from Harlan Laboratories. Animals were housed in Virus Antibody Free rooms in micro-isolated cages with free access to sterilized food and water. All experiments were conducted in accordance with the standards set forth in the Guide for the Care and Use of Laboratory Animals.
Diabetes was induced by intravenous administration of streptozotocin (200 mg/kg) freshly dissolved in citrate buffer. Induction of diabetes was confirmed by monitoring non-fasting glycemic values after induction and only animals with values ≧350 mg/dL were used as recipients. After transplantation of a marginal islet mass (≈50 IEQ/g body weight), meaning a mass that is not sufficient to immediately render the recipient normoglycemic, the animals were monitored for graft function by measuring non-fasting glycemic values daily in the first week post-transplant, and up to 3 times a week thereafter. Interventions that improve islet engraftment, viability, and function will reduce the time to achieve normoglycemia in animals transplanted with a marginal islet mass. […]
Animals were considered euglycemic when non-fasting glycemic values were ≧200 mg/dL on at least 2 consecutive readings. […]

nonhuman primate islets = test: Glucose-induced insulin secretion of nonhuman primate islets (dynamic stimulation, perifusion); assay type: cell-based; details: cultured two days with 50 nM; 11-mM glucose stimulation
Method: The effects of GLP-1 MMB on the insulin secretion in response to glucose in nonhuman primate islets. Nonhuman primate islets were isolated using an enzymatic digestion and density gradient purification and were divided into two groups and cultured at 37° C. in humidified mixed 95% air/5% CO2 in non-tissue culture treated 175 cm^2 flasks (Corning, Mass.) at a density of ≈20,000 IE. One group of islets was cultured alone and the other group was cultured in MM1 supplemented with 50 nM GLP-1 MMB.
Following two days of culture, the islets were collected and a sample of islets (2 from control and 1 from GLP-1 MMB groups) was subjected to a dynamic stimulation assay to evaluate the effects of glucose concentration on the insulin secretion of the islets. Islets were pre-perifused in a chromatography column (Bio-gel Fine 45-90 nm; Bio-Rad) with a buffer containing 125-mM NaCl, 5.9-mM KCl, 1.28-mM CaCl2, 1.2-mM Mg Cl2, 25-mM HEPES, 0.1% bovine serum albumin and 3-mM glucose for 20 min, at 37° C. Islets were perifused in the same buffer for 10 min and then sequentially exposed to 11-mM and 3-mM glucose. Fractions of the perfusate were collected every 2 min during perfusate with 3-mM glucose, and every minute during stimulation. The concentration of insulin in each fraction was assayed by ELISA.

INS-1E cells = test: Glucose-dependent insulin secretion in INS-1E cells; assay type: cell-based
Method: GLP-1 MMB Increases Glucose-Dependent Insulin Secretion in INS-1E Cells. INS-1E cells were plated in 24-well plates at a cell density of 200,000 cells/well in RPMI 1640+10% FBS+1% L-glutamine+1% Sodium Pyruvate+1% Non-essential Amino Acids+50 μM β-Mercaptoethanol media. The cells were allowed to grow for 7 days at 37° C. and 5% CO2 and were fed on day 3 or 4. The cells were washed twice with 0.4 ml of KRBH buffer/3 mM glucose and allowed to incubate in this buffer for 30-60 minutes. The media was removed from the cells and 0.4 ml of test article in KRBH with the appropriate amount of glucose was added per well. Twenty microliters of supernatant was removed per well for the T=0 time point and following incubation for 60 minutes at 37° C. at 5% CO2 for insulin measurements. Insulin concentrations were determined using a rat standard curve (12.8-0.1 ng/ml) with the Ultra Sensitive Rat Insulin ELISA kit (Crystal Chem). Five microliters of a 1:50 dilution of the time point supernatants were used in the assay in order to obtain values that fell on the standard curve. ELISA plates were read at OD450 subtracting the OD630 on a Molecular Devices SpectraMax 340PC plate reader.

rat islets = test: Glucose-dependent insulin secretion in rat islets; assay type: cell-based; details: 50 nM, glucose 3.5 mM or 15 mM, 4 hours
Method: (§1) GLP-1 MMB Increases Glucose-Dependent Insulin Secretion in Rat and Human Islets. Rat islets were obtained by collagenase digestion followed by Ficoll gradient purification. Human islets were isolated using an enzymatic digestion and density gradient purification described in detail in Ricordi et al. Diabetes (1998) 37; 4, 413-420. Islets were plated overnight in CMRL-1066 (Gibco), pen/strep (5,000 units/5,000 μg), 10% FBS, 1% L-Glutamine 25 mM HEPES, pH 7.2-7.4 media in a 20×100 mm petri dish, and cultured at 37° C. in 5% CO2 for 18 to 24 hours. The following day, islets were swirled to center of dish and collected into a 50 mL conical tube. The islets were allowed to settle to the bottom of the tube by gravity for approximately 10-15 minutes. The supernatant was removed, Functionality/Viability media (MediaTech, cat#99-786-CV) was added and islets were allowed to settle to the bottom of the tube by gravity. The islets were washed for a total of three times. The supernatant was removed and the islets were resuspended at a density of 20 islets per mL in Functionality/Viability media containing 1% BSA, 1% L-Glutamine, 1% pen/strep and 0.5 mM glucose solution. One mL of cell suspension (˜20 islets) was added to each well of a 24 well plate and incubated for 2 hrs at 37° C. in 5% CO2. […]

db/db mice = test: Insulin staining of pancreas in db/db mice after single dose; assay type: in vivo; details: single 1.5 mg/kg s.c.
Method: GLP-1 MMB Protects Decline of Diabetic Mouse β-cells. Mice (12 week old db/db) were fasted overnight. On day 1 of the study, mice (4 groups; n=5/group) were dosed s.c. with GLP-1 MMB (1.5 mg/kg) or a negative control mimetibody. On day 4 of the study, fasting blood glucose was measured and an OGTT (oral glucose tolerance test) was performed. Blood glucose levels were measured at 15, 30, 60, 90, 120, 150 and 180 min using tail vein blood. Mice were euthanized and pancreata were removed and fixed by immersion in 10% neutral buffered formalin. The pancreas from each mouse was embedded in paraffin and sectioned for staining by H&E and immunohistochemistry. […] The experiment was repeated with the mice sacrificed 14 days after dosing to evaluate the longevity of the single dose of GLP-1 MMB.

human islets = test: Glucose-dependent insulin secretion in human islets; assay type: cell-based; details: 50 nM, glucose 3.5 mM or 15 mM, 4 hours
Method: as §1

normal C57BLK/6 mice = test: Blood glucose and body weight of normal C57BLK/6 mice; assay type: in vivo; details: 0.5 mg/kg daily IP for 10 days
Method: The effects of GLP-1 MMB on the blood glucose of normal mice. Normal C57BLK/6 mice were randomized into two groups with each group having 13 animals. Group1 received daily intraperitoneal (IP) doses of PBS vehicle or GLP-1 MMB (0.5 mg/kg). Both groups were treated for 10 days. The mice were monitored daily for body weight and blood glucose was monitored (LifeScan, Calif.) for 32 days at which point the study was terminated.

[2] = system: diabetic cynomolgus monkeys transplanted with a marginal islet mass; test: Allogeneic islet marginal mass model in STZ diabetic cynomolgus monkeys; assay type: in vivo, cynomolgus monkey; details: 0.2 mg/kg subcutaneously two times per week
Description: The effects of GLP-1 MMB on allogeneic islet engraftment and long-term survival in a cynomolgus monkey marginal mass model. The use of a non-human primate marginal mass model enables one to study transplant approaches that have the potential to allow for reversal of diabetes with a reduced number of islets. In the marginal mass model, approximately 5,000 IEQ/kg, or half the number (usually 10,000 IEQ/kg) required to achieve normoglycemia, are transplanted. By utilizing islets obtained from the same allogeneic donor one eliminates donor and isolation variables.
Recipients were 2-3 year old cynomolgus monkeys of Mauritian origin; donors of the same strain were >4 years of age. Diabetes was induced with 1250 mg/m^2 streptozotocin. […]
The donor organ was harvested and islets isolated via the semi-automated method referenced in Example A and Example B, followed by 2 overnight culture periods, first at 37° C. and then at 22° C. […] Animals were monitored twice a day to determine fasting and post-prandial blood glucose levels (heel stick, glucometer) and treated with insulin as needed to maintain blood glucose in the 100-200 mg/dl range post-transplant. Fasting c-peptide was determined every other week and intravenous glucose tolerance testing (IVGTT) was done every 8 weeks to assess graft function.

B1: GLP-1 MMB: GLP-1 mimetibody, abbreviated MMB; construct not specified in Examples 16-23 (protein)
chain: HAEGTFTSDVSSYLEGQAAKEFIAWLVKGRGGGSGGGSGTLVTVSS[human IgG1 Fc not printed]
- protection from cytokine-induced apoptosis (RIN-m cells): protect RIN-m cells from apoptosis induced by TNF-α or IL-1α
- time to normoglycemia after marginal mass human islet transplant [1]: achieved normoglycemia more rapidly relative to the control mice
- glucose stimulated insulin secretion, nonhuman primate islets (nonhuman primate islets): significant increase in glucose stimulated insulin secretion
- insulin secretion in INS-1E cells (INS-1E cells; 60 minutes): increased insulin secretion in a dose-dependent manner but only in the presence of elevated glucose
- EC50 (INS-1E cells; INS-1E cells, 5.5 mM glucose, fit to a Hill equation, read-out: EC50, insulin secreted): 0.07 nM
- insulin secretion from rat islets (rat islets): significantly increases insulin secretion
- intensity of insulin staining, day 4 (db/db mice; 12 week old db/db mice): significantly higher intensity of insulin staining
- intensity of insulin staining, 14 days after dosing (db/db mice; db/db mice): higher intensity of insulin staining
- insulin secretion from human islets (human islets): significantly increases insulin secretion
- blood glucose of normal mice (normal C57BLK/6 mice): lower blood glucose during the course of the 10-day treatment as compared to the PBS treated mice
- body weight gain (normal C57BLK/6 mice; 32 days study): identical body weight gain
- HgbAlc [2]: rapid reduction in the HgbAlc
- exogenous insulin requirements ([2]; islets cultured with 50 nM): significant reduction in exogenous insulin requirements
